Some of the results follow.
What was measured:
HSkMC = human skeletal muscle cells; assay: cytotoxicity call (relative viability < 0.9); details: 10 µM
HepG2 = assay: cytotoxicity call (relative viability < 0.9); details: 10 µM
S. aureus RN4220 = assay: growth inhibition call (relative growth <= 0.2); details: 50 µM

| Compound | cytotoxicity call (HSkMC) | cytotoxicity call (HepG2) | growth inhibition call (S. aureus RN4220) |
| --- | --- | --- | --- |
| CC(C)(C)[S@](=O)N1Cc2cc(C(=O)NCc3ccncc3)nc(-c3cccc(-c4ccc(C#N)cc4)c3)c2[C@@H]1CCO | inactive | inactive | inactive |
| C[C@@H]1CCCCO[C@@H](CN(C)Cc2ccc(Cl)c(Cl)c2)[C@H](C)CN([C@@H](C)CO)C(=O)c2cc(NC(=O)NC3CCCCC3)ccc2O1 | inactive | inactive | inactive |
| C[C@H]1CN([C@@H](C)CO)C(=O)Cc2cc(NC(=O)CCC(F)(F)F)ccc2O[C@@H]1CN(C)Cc1ccc(Oc2ccccc2)cc1 | inactive | inactive | inactive |
| C[C@H](CO)N1C[C@H](C)[C@H](CN(C)S(=O)(=O)c2cccs2)Oc2ccc(NC(=O)c3ccncc3)cc2CC1=O | inactive | inactive | inactive |
| CC(C)NC(=O)Nc1ccc2c(c1)CC(=O)N([C@@H](C)CO)C[C@@H](C)[C@H](CN(C)S(=O)(=O)c1cccs1)O2 | inactive | inactive | inactive |
| COc1cccc(S(=O)(=O)N(C)C[C@H]2Oc3ncc(C#CCN(C)C)cc3C(=O)N([C@H](C)CO)C[C@@H]2C)c1 | inactive | inactive | inactive |
| C[C@H]1CN([C@@H](C)CO)C(=O)c2cc(NC(=O)CCCCCC(=O)Nc3ccccc3N)ccc2O[C@H]1CN(C)S(=O)(=O)c1cn(C)cn1 | inactive | inactive | inactive |
| Cc1noc(C)c1S(=O)(=O)Nc1ccc2c(c1)C(=O)N([C@H](C)CO)C[C@H](C)[C@@H](CN(C)Cc1ccc(C(=O)Nc3ccccc3N)cc1)OCCCC[C@@H](C)O2 | inactive | active | inactive |
| CN(C)CCCNC(=O)C[C@@H]1CC[C@@H](NS(=O)(=O)c2ccccc2)[C@@H](CO)O1 | inactive | inactive | inactive |
| C=C1C(c2ccc(C)cc2)=CCc2cc(C)cc(C)c21 | inactive | inactive | inactive |
| O=C(C[C@@H]1CC[C@@H]2[C@H](COC[C@@H](O)CN2C(=O)c2ccncc2)O1)NCc1ccc(-c2ccccc2)cc1 | inactive | inactive | inactive |
| C[C@@H]1CN([C@@H](C)CO)S(=O)(=O)c2ccc(Br)cc2O[C@@H]1CN(C)C(=O)c1cnccn1 | inactive | inactive | inactive |
| C[C@@H]1CN([C@@H](C)CO)C(=O)Cc2cc(NS(=O)(=O)c3ccc(F)cc3)ccc2O[C@H]1CN(C)Cc1ccncc1 | inactive | inactive | inactive |
| NC(=O)NCC#Cc1ccc2c(c1)[C@]1(C(=O)N2)[C@H](c2ccc(O)cc2)N2[C@H](c3ccccc3)[C@H](c3ccccc3)OC(=O)[C@H]2[C@@H]1C(N)=O | inactive | inactive | inactive |
| Cc1ccc(S(=O)(=O)N(C)C[C@H]2OCCCC[C@@H](C)Oc3ccc(NC(=O)CCC(F)(F)F)cc3C(=O)N([C@H](C)CO)C[C@H]2C)cc1 | inactive | inactive | inactive |
| COc1ccc(NC(=O)N(C)C[C@H]2OCCCC[C@@H](C)Oc3ccc(NC(=O)NC(C)C)cc3C(=O)N([C@H](C)CO)C[C@@H]2C)cc1 | inactive | inactive | inactive |
| C[C@H]1CN([C@@H](C)CO)C(=O)c2cccc(NC(=O)C3CC3)c2O[C@@H]1CN(C)Cc1ccc(C(=O)O)cc1 | inactive | inactive | inactive |
| C[C@H]1CCCCO[C@@H](CN(C)S(=O)(=O)c2ccc(Cl)cc2)[C@@H](C)CN([C@@H](C)CO)C(=O)c2cc(NS(=O)(=O)c3ccc(Cl)cc3)ccc2O1 | inactive | inactive | inactive |
| C[C@H]1CN([C@@H](C)CO)C(=O)c2cccc(NC(=O)c3cnccn3)c2O[C@H]1CN(C)Cc1ccc2c(c1)OCO2 | inactive | inactive | inactive |
| C[C@@H]1CCCCO[C@@H](CN(C)Cc2ccc(Cl)c(Cl)c2)[C@@H](C)CN([C@@H](C)CO)C(=O)c2cc(NC(=O)Nc3ccc(C(F)(F)F)cc3)ccc2O1 | inactive | inactive | inactive |
| O=C(C[C@@H]1CC[C@H]2[C@@H](COC[C@@H](O)CN2C(=O)Nc2cccc(Cl)c2)O1)NCc1ccccc1F | inactive | inactive | inactive |
| Cl.NC1C(O)OC(CO)C(O)C1O (configuration not stated) | inactive | inactive | inactive |
| C[C@@H]1CN([C@H](C)CO)C(=O)Cc2cc(NS(=O)(=O)c3cn(C)cn3)ccc2O[C@H]1CN(C)C(=O)Nc1ccc(F)cc1 | inactive | inactive | inactive |
| Cc1noc(C)c1NC(=O)N(C)C[C@@H]1OCCCC[C@H](C)Oc2ccc(NC(=O)Nc3ccc(F)cc3)cc2C(=O)N([C@H](C)CO)C[C@@H]1C | inactive | inactive | inactive |

— the antibiotic and cytotoxicity screens of Wong et al. (2023)
